Experimental data from PMC9554868.
These are yes or no findings as the source states them, for the method shown. In cells and extracts the contact can be indirect. Some binding calls cover weakened binding; strength is not graded here.

Sequences of proteins named here, by UniProt entry; tags and fusion partners are left off. A change or cut given only in a name is not applied to a line headed by its entry. A line that says so, or that is headed by a name, gives the form on record, which may keep a tag or linker. Residues count along the entry.
UniProt Q96GF1: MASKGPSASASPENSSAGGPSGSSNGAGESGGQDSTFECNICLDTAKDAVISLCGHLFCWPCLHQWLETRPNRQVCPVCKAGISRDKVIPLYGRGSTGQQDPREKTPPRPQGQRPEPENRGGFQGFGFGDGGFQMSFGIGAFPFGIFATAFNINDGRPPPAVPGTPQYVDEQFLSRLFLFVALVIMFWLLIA
RNF185 deletion mutant ∆171–192: residues 1-170 of Q96GF1
RNF185 deletion mutant ∆133–192: residues 1-132 of Q96GF1
RNF185 deletion mutant ∆81–132 (Q96GF1, form named): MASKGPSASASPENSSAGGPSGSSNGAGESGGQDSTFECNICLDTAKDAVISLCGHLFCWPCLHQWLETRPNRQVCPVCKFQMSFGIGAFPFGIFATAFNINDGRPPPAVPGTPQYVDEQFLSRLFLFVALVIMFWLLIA
RNF185 deletion mutant ∆133–155 (Q96GF1, form named): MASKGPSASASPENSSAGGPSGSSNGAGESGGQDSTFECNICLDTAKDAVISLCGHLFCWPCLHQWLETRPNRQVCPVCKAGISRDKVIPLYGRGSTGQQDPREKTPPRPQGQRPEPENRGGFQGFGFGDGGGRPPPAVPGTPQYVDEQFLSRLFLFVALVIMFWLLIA
RNF185 deletion mutant ∆2–18 (Q96GF1, form named): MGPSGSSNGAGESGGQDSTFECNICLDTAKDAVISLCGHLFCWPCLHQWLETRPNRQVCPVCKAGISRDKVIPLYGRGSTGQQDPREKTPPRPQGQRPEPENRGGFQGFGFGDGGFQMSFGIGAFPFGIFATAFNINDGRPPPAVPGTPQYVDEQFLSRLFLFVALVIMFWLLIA
RNF185 deletion mutant ∆19–38 (Q96GF1, form named): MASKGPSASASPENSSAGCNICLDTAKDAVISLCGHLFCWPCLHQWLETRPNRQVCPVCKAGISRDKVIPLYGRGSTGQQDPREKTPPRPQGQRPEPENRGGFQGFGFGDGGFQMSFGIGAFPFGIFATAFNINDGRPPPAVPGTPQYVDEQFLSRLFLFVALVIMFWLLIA
UniProt Q05320, residues 33-676: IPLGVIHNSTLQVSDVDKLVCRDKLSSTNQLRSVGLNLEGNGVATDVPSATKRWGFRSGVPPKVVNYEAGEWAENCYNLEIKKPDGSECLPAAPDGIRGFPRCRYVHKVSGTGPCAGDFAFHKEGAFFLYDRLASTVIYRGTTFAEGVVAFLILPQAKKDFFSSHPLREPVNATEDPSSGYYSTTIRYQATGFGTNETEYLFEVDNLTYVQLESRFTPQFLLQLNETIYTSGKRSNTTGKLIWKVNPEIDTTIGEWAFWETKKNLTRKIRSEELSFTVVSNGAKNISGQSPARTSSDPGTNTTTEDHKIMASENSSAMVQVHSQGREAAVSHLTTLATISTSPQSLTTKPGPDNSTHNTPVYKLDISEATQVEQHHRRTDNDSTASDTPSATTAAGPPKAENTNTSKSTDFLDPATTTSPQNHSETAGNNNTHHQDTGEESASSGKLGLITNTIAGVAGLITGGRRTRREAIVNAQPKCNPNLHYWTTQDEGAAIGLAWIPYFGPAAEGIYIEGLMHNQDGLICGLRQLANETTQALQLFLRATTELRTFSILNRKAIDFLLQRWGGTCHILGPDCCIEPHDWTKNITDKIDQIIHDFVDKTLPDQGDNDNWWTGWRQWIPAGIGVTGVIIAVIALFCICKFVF

Assays:
Assay in all cases: co-IP
[1] = target: RNF185 deletion mutant ∆133–192 (UniProt Q96GF1)
[2] = target: RNF185 deletion mutant ∆171–192 (UniProt Q96GF1)
[3] = target: RNF185 deletion mutant ∆81–132 (UniProt Q96GF1)
[4] = target: RNF185 deletion mutant ∆133–155 (UniProt Q96GF1)
[5] = target: RNF185 deletion mutant ∆2–18 (UniProt Q96GF1)
[6] = target: RNF185 deletion mutant ∆19–38 (UniProt Q96GF1)

Zaire ebolavirus (EBOV) glycoprotein GP1,2 (from UniProt Q05320)
binding [1]: no binding
binding [2]: no binding
binding [3]: binds
binding [4]: binds
binding [5]: binds
binding [6]: binds
